Experimental data published in the supplement of paper PMC4723716.
± gives the uncertainty stated by the source. Whole data set: some 9,900 compounds, median “viability index relative to DMSO control” near 1, cut for the lowest 2% near 0.85. Some of the results follow.

Tested on: Plasmodium falciparum NF54 stage V gametocytes
Assay: viability index relative to DMSO control (fraction); higher = less gametocyte killing
Conditions: 2.5 µM, incubation time: 72 h
Outline: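 P. falciparum NF54 stage V gametocytes in serum-free screening medium (0.75% gametocytemia, 1.25% hematocrit, 10 µl) were incubated with compound at 2.5 µM in 1,536-well plates for 72 hr at 37°C under low oxygen. Then 3 µl of 2.5 µM MitoTracker Red CMXRos plus 0.13% saponin was added for one to two hours. One field per well was imaged, 20–70 µm2 red particles were counted, and the viability index was the count divided by the plate mean of DMSO wells.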

[1] = library set: Broad Institute DOS

SMILES	viability index [1]	viability index (library set: Broad Institute Blood Stage)
C[C@H](CO)N1C[C@H](C)[C@H](CN(C)C(=O)Nc2ccccc2)Oc2ccc(NS(=O)(=O)c3ccc(F)cc3)cc2C1=O	0.908 ± 0.069	
N#Cc1cccc(-c2ccc([C@H]3[C@H]4CN(Cc5ccccc5F)CCCCN4[C@H]3CO)cc2)c1	1.06 ± 0.024	
O=C(C[C@@H]1CC[C@H]2[C@@H](COC[C@@H](O)CN2C(=O)Nc2ccccc2)O1)NCc1ccccc1F	1.02 ± 0.029	
COc1ccc2c3c([nH]c2c1)[C@H](CO)N(Cc1ccccc1)C[C@]31CN(C1)C(=O)c1ccccn1	0.92 ± 0.023	
CO[C@H]1CN(C)C(=O)c2cc(NC(C)=O)ccc2OC[C@@H](C)N(S(C)(=O)=O)C[C@@H]1C	1.02 ± 0.029	
C[C@@H]1CN([C@@H](C)CO)C(=O)Cc2cc(NC(=O)CCN3CCOCC3)ccc2O[C@@H]1CN(C)Cc1ccc(C(=O)O)cc1	0.9784 ± 0.0024	
COc1ccc(S(=O)(=O)Nc2ccc3c(c2)[C@H]2C[C@@H](CC(=O)N(C)C)O[C@@H](CO)[C@H]2O3)cc1	1.07 ± 0.052	
CO[C@H]1CN(C)C(=O)c2cccc(C#N)c2OCC[C@H]2CC[C@@H](OC)[C@H](CN(C)C(=O)[C@@H]1C)O2	1.02 ± 0.041	
Cc1noc(C)c1NC(=O)N[C@H]1C=C[C@@H](CC(=O)Nc2ccc(-c3ccccc3)cc2)O[C@H]1CO	1.03 ± 0.078	
COc1cccc(S(=O)(=O)N(C)C[C@@H]2OCc3ccccc3-c3c(n(C)c4ccccc34)C(=O)N([C@H](C)CO)C[C@@H]2C)c1	0.826 ± 0.058	
COc1ccccc1-c1ccc([C@H]2[C@@H](C#N)N[C@@H]2CO)cc1	1.11 ± 0.069	
Cc1ccc(S(=O)(=O)N2C[C@H](O)COC[C@H]3O[C@H](CC(=O)NCc4ccc5c(c4)OCO5)CC[C@@H]32)cc1	1.09 ± 0.042	
COc1cccc(CN2C[C@]3(CN(C)C3)c3c([C@H]2CO)n(C)c2cc(OC)ccc32)c1	0.996 ± 0.085	
CCS(=O)(=O)N1C[C@@]2(C1)CN([C@H](CO)c1c2c2ccc(OC)cc2n1C)C(=O)NC(C)C	1.01 ± 0.083	
COc1ccccc1C#Cc1ccc([C@@H]2[C@@H](CO)N3CCCCN(CCC(F)(F)F)C[C@H]23)cc1		0.759 ± 0.06
C/C=C/c1ccc([C@H]2[C@@H](CO)N3C(=O)CN(Cc4ccc(F)cc4)C[C@@H]23)cc1	0.992 ± 0.064	
CCCN(C)C[C@H]1OCCCC[C@H](C)Oc2ccc(NC(=O)CCCN(C)C)cc2C(=O)N([C@H](C)CO)C[C@@H]1C	1.06 ± 0.054	
CCCNC(=O)N1CC2(C1)[C@@H](c1ccccc1)[C@@H](CO)N2CC1CCOCC1	1.04 ± 0.028	
CCS(=O)(=O)N1[C@H](CO)[C@@H](c2ccc(C#CCC3CCCC3)cc2)[C@@H]1C#N	1.04 ± 0.025	
Cc1ccc(S(=O)(=O)N2C[C@@H](O)COC[C@H]3O[C@@H](CC(=O)NCc4ccc5c(c4)OCO5)CC[C@@H]32)cc1	1.102 ± 0.01	
